Test results taken from PubChem BioAssay AID2147 (National Center for Advancing Translational Sciences (NCATS), 2009).
Values joined by “and” are separate entries in the source; they are usually repeats but may differ in a detail not shown here. Equal entries are not always repeated. In all, about 230,000 compounds went through this assay and about 3,600 (1.6%) were called active. The inconclusive results got no clear call from the source; some entries with a clear call stand among them for comparison. Calls come from the whole dose curve; as a rule, active = well fitted inhibition curve with a large enough effect (not every such curve was filed as active); inconclusive = small, poorly fitted or top-dose-only effect, or another doubt; inactive = no such curve, though single readings can be large or run the other way. Potencies of inconclusive entries are doubtful fits and often do not repeat.

target: Lysine-specific demethylase 4E (Homo sapiens) (UniProt B2RXH2); assay: qHTS Assay for Inhibitors of Human Jumonji Domain Containing 2E (JMJD2E); conditions: JMJD2E catalytic domain, FDH-coupled NADH fluorescence (FDH is formaldehyde dehydrogenase); series mostly up to 57.1 µM; activity change, negative = inhibition: at the top concentration
Sequence of UniProt B2RXH2 (B2RXH2 whole entry, looked up, the tested form may be a part): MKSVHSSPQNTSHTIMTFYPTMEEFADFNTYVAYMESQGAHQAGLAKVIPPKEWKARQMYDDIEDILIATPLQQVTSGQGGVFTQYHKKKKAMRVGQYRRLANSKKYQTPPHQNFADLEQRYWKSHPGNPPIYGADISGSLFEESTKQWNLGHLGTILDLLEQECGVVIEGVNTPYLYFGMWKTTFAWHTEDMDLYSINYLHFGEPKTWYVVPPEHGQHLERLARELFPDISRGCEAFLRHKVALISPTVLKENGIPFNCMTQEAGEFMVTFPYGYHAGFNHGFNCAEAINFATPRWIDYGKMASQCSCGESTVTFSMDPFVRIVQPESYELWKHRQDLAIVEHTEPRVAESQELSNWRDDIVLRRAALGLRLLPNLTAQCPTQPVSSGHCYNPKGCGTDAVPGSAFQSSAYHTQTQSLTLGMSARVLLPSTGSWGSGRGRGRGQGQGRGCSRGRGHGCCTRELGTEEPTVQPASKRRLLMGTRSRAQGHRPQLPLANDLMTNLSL
Note: nearly all actives have a fitted effect of over 50% in size.
Potency is the fitted concentration of half-maximal effect; tags give direction and shape of the fitted curve.
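Throughout, for activity change, negative = inhibition: 0% = wells with enzyme and -100% = buffer wells without enzyme.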

Row | Structure (SMILES) | Potency | activity change, negative = inhibition
1 | O=c1cc(O)c2c(=O)n(-c3ccccc3)c3c(c2o1)CCCCC3 | inconclusive: 35.5 µM [inhibitor, partial curve] | –
2 | CC1=CC(C)(C)Nc2ccc(OS(=O)(=O)c3ccc(C)cc3)cc21 | – | inactive: 0.75%
3 | S=c1[nH]c(-c2ccc(Br)cc2)cn1CCc1ccccc1 | inconclusive: 31.6 µM [inhibitor, single point] | –
4 | COc1ccc(N2C(=O)c3ccccc3NC2c2cccnc2)cc1 (centres undefined) | inconclusive: 25.1 µM [inhibitor, partial curve] | –
5 | Fc1ccc(CN2CCN(c3ncccn3)CC2)cc1 | inconclusive: 39.8 µM [inhibitor, single point] | –
6 | O=C(NCCCCc1ccccc1)C1CC(c2ccc(C(F)(F)F)cc2)=NO1 (centres undefined) | – | inactive: 9.86%
7 | O=C(COC(=O)c1cc(-c2cccs2)nc2ccccc12)NCc1ccco1 | inconclusive: 10 µM [inhibitor, partial curve] | –
8 | COC(=O)c1sc(NC(=O)c2cc3c(s2)CCCC3)nc1C | inconclusive: 39.8 µM [inhibitor, single point] | –
9 | CN(C)c1ccc(/C=N/n2cnn(Cc3ccccc3Cl)c2=S)cc1 | inconclusive: 31.6 µM [inhibitor, single point] | –
10 | O=C(COC(=O)c1cc(S(=O)(=O)NCc2ccccc2)ccc1O)c1cc2ccccc2o1 | inconclusive: 28.2 µM [inhibitor, single point] | –
11 | COc1ccc(-c2nc(CSCC(=O)N3CCN(C(=O)c4ccco4)CC3)c(C)o2)cc1OC | inconclusive: 39.8 µM [inhibitor, single point] | –
12 | O=C(Nc1nc(-c2cc(F)ccc2F)cs1)C1=NN(c2ccccc2)C(=O)CC1 | inconclusive: 39.8 µM [inhibitor, single point] | –
13 | N#Cc1ccc(NC(=O)CNc2cc(S(=O)(=O)N3CCOCC3)ccc2NCC2CCCO2)cc1 (centres undefined) | – | inactive: -4.33%
14 | CC(=O)NN1C(=O)/C(=C/c2ccc(Br)o2)SC1=S | inconclusive: 39.8 µM [inhibitor, single point] | –
15 | O=[N+]([O-])c1cccc(/C=N/n2c(C3CCCCC3)n[nH]c2=S)c1 | inconclusive: 39.8 µM [inhibitor, single point] | –
16 | COc1ccc(C(=O)CSc2nc3[nH]ncc3c(=O)[nH]2)cc1 | – | inactive: -0.852%
17 | COC(=O)[C@@]1(Cc2ccccc2)[C@H]2c3cc(C(=O)N4CCCC4)n(C)c3C[C@H]2CN1C(=O)c1ccccc1 | inconclusive: 39.8 µM [inhibitor, single point] | –
18 | CCN(CC)CCn1c(C)nc2c(sc3nc4c(cc32)COC(C)(C)C4)c1=O | inconclusive: 28.2 µM [inhibitor, single point] | –
19 | O=C1c2ccccc2C(=O)N1CCn1c(=O)oc2ccccc21 | – | inactive: 1.67%
20 | Cc1ccc(SCc2cc(=O)n(C)[nH]2)cc1 | inconclusive: 0.447 µM [inhibitor, full curve] | –
21 | CCOC(=O)c1ccc2[nH]c3c(c2c1)CN(C)CC3 | inconclusive: 35.5 µM [inhibitor, single point] | –
22 | CC1=Nn2c(nc3sc4c(c3c2=O)CCCC4)SC1 | – | inactive: 2.3%

Row | Structure (SMILES) | Potency | activity change, negative = inhibition
23 | COc1ccc(CC(=O)Nc2cc3oc4ccccc4c3cc2OC)cc1 | inconclusive: 28.2 µM [inhibitor, single point] | –
24 | Cc1nc2ncnn2c(C)c1CCC(=O)N1CCc2ccccc21 | inconclusive: 0.708 µM [inhibitor, single point] | –
25 | C=CCOCCN(C)C1=NS(=O)(=O)c2cc([N+](=O)[O-])ccc21 | – | inactive: -16.6%
26 | COc1ccc(S(=O)(=O)NCc2ccco2)cc1N(C)S(=O)(=O)c1ccccc1 | inconclusive: 31.6 µM [inhibitor, single point] | –
27 | CN(C)S(=O)(=O)c1ccc(Cl)c(NC(=O)COC(=O)c2ccc3c(c2)NC(=O)CS3)c1 | – | inactive: -13.3%
28 | COc1ccc(CNC(=O)c2cc(-c3cc(C)ccc3O)n[nH]2)cc1 | inconclusive: 39.8 µM [inhibitor, single point] | –
29 | COC(=O)C1(C)Cc2cc(OC(C)=O)c(OC(C)=O)cc2N1 (centres undefined) | inconclusive: 25.1 µM [inhibitor, single point] | –
30 | O=C1NCCCC2c3cc(O)c4ccccc4c3OC12N1CCCCC1 (centres undefined) | inconclusive: 14.1 µM [inhibitor, partial curve] | –
31 | Nc1nc(-c2ccco2)nn1C(=O)c1ccc(Cl)cc1 | – | inactive: -9.71%
32 | CN1CCN(C(=O)/C=C/c2ccc([N+](=O)[O-])o2)CC1 | inconclusive: 25.1 µM [inhibitor, partial curve] | –
33 | O=c1[nH]c(/C(Cl)=C/c2cccc(F)c2)nc2cc(C(F)(F)F)ccc12 | inconclusive: 5.01 µM [inhibitor, full curve] | –
34 | CC(=O)Nc1cccc(C(=O)/C=C/c2ccc(Br)cc2)c1 | – | inactive: -1.87%
35 | Oc1ccc(NC(=S)Nc2ccc(O)cc2)cc1 | inconclusive: 7.94 µM [inhibitor, full curve, poor fit] | –
36 | O=S(=O)(N/N=C/c1ccc(N2CCOCC2)cc1)c1ccccc1 | – | inactive: 2.62%
37 | CN(C)c1cc(-c2ccc(F)cc2)oc(=O)c1Cl | – | inactive: 1.02%
38 | CCOC(=O)c1ccccc1NC(=O)Cc1sc(-c2cccnc2)nc1-c1ccc(C)cc1 | inconclusive: 31.6 µM [inhibitor, single point] | –
39 | O=C(CNC(=O)Cn1ccc2ccccc2c1=O)NCCCN1CCCCCC1 | inconclusive: 35.5 µM [inhibitor, single point] | –
40 | O=C(CSc1nc2c(c(C(F)(F)F)n1)CCc1ccccc1-2)NCc1ccco1 | inconclusive: 35.5 µM [inhibitor, single point] | –
41 | O=C(CCC1N=C2c3ccccc3N=C(SCc3cccc(Cl)c3)N2C1=O)NCc1ccco1 (centres undefined) | inconclusive: 39.8 µM [inhibitor, single point] | –
42 | CC1CC(=O)N(c2ccc(N(C)Cc3ccccc3)c([N+](=O)[O-])c2)C1=O (centres undefined) | – | inactive: -0.581%
43 | NNCCc1ccccc1 | inconclusive: 25.1 µM [inhibitor, single point] and inconclusive: 20 µM [inhibitor, single point] | –
44 | Cn1c(-c2cnn(-c3ccccc3)c2N)n[nH]c1=S | – | inactive: -9.94%
